“And” between values parts separate entries of the source, which are not always exact repeats. Equal entries are not always repeated. In all, about 48,000 compounds went through this assay and about 1,200 (2.5%) were called active. About 2% were inconclusive and are not listed.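 The calls were made as follows: active = activation of at least 60% and not above a set upper limit (about 1 call in 100 departs from these limits); inconclusive = activation of 40% to 60%, or above that upper limit; inactive = activation under 40%.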 This is one part of the list.
These compounds were tested against Probable G-protein coupled receptor 32 (Homo sapiens) (UniProt O75388) (assay: qHTS for Agonists of Human Resolvin D1 Receptor DRV1). Settings: CHO-K1 GPR32 beta-arrestin PathHunter luminescence, 90 min; at 76.9 µM; hits give high values; zero percent set by DMSO-only wells.
Sequence of UniProt O75388 (O75388 whole entry, looked up, the tested form may be a part): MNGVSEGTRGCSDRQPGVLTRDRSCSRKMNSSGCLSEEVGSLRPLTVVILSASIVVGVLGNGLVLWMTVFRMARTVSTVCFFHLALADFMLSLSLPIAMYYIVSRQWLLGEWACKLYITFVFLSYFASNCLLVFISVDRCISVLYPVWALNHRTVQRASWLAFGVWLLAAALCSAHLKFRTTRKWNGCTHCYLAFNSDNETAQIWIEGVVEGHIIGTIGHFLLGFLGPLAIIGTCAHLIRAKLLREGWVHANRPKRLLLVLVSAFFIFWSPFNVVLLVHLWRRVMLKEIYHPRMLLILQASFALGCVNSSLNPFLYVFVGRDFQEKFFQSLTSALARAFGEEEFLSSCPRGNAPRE
Procedure, shortened: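 Agonism was scored as beta-arrestin recruitment to ProLink-fused GPR32 in stably transfected CHO-K1 cells, giving a chemiluminescent beta-Gal signal; compounds were incubated 90 min at 37 °C.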
Also: 0% is about no effect.

SMILES	activation
CC1CCN(c2ncnc3c2cnn3-c2ccc(F)cc2)CC1	inactive: 26.9%
CCc1ccc(-n2c(=O)c3c4c(sc3n(CC(=O)NCCCOC)c2=O)CCCC4)cc1	inactive: -15.7%
CCc1ccc(-c2nc(CN3CCC(C(=O)NCCc4ccc(Cl)cc4)CC3)c(C)o2)cc1	inactive: -2.86%
COc1cccc(NC(=O)c2sc3nc(C)c(C(=O)Nc4ccc(C)cc4C)c(-c4ccccc4Cl)c3c2N)c1	inactive: -9.83%
NC(N)=NC(=O)Cc1c(Cl)cccc1Cl	inactive: -3.06% and inactive: 0.0886%
Cc1ccc(CCNC(=O)c2ccc(NC(=O)N3CC(C)Sc4ccccc43)cc2)cc1 (centres undefined)	inactive: -23.8%
COC(=O)C1=C(c2ccccc2)c2ccccc2S(=O)(=O)N1CC(=O)Nc1cccc(C(C)=O)c1	inactive: -2.21%
CC1(C)O[C@H]2CC(=O)OC[C@]23[C@H]2CC[C@@]4(C)[C@H](c5ccoc5)OC(=O)[C@H]5O[C@]54[C@]2(C)C(=O)C[C@@H]13	inactive: -3.29%
CCCCN(C)CCNC(=O)c1ccc2c(=O)n(CCc3ccccc3)c(=O)[nH]c2c1	inactive: 14.6%
CCc1ccc(NC(=O)C(NS(=O)(=O)c2cccs2)C(C)C)cc1 (centres undefined)	inactive: 4.56%
Cn1c(=O)c2c(-c3ccccc3)n3c(c2n(C)c1=O)C(c1ccccc1[N+](=O)[O-])Nc1ccccc1-3 (centres undefined)	inactive: -1.01%
Cn1c(=O)c2c(c3ccccc31)OC(=O)CC2c1ccc(C(F)(F)F)cc1 (centres undefined)	inactive: 4.1%
CCCCCCC/C=C\CCCCCCCCC(=O)O	inactive: -5.06%
O=C(Nc1ccc2oc(-c3cccc4c(Br)cccc34)nc2c1)c1ccc(F)cc1	inactive: 5.61%
CCCN(Cc1cccs1)C(=O)Nc1cc(Cl)c(OC)cc1OC	inactive: -16%
CCCN(CCC)CCCNC(=O)Cn1cnc2sc(C)c(S(=O)(=O)N3CCCCC3)c2c1=O	inactive: -2.51%
O=C(c1ccc2c(c1)N(Cc1ccccc1F)C(=O)c1ccccc1S2(=O)=O)N1CCOCC1	inactive: -10.3%
CCOC(=O)c1oc2ccc(S(=O)(=O)n3nc(-c4ccccc4OC)cc3N)cc2c1C	inactive: 9.98%
O=C(COC(=O)c1cc(-c2cccs2)nc2ccccc12)c1ccccc1	inactive: -2.18%
Cc1ccc(-c2nc3nc(C)cc(N4CCN(c5cc(Cl)ccc5C)CC4)n3n2)cc1	inactive: 0.294%
CCOCCCNC(=O)c1ccc2nc(CCc3ccccc3)oc2c1	inactive: -19.4%

SMILES	activation
COc1ccc(C2=NC3(CCCCC3)N(CC(=O)Nc3ccc(C(C)C)cc3)C2=O)cc1	inactive: -24.8%
COc1ccc(-c2cc(C(=O)Oc3ccccc3)c3cc(C)ccc3n2)cc1	inactive: 6.06%
CCn1c(=O)n(-c2ccc(C)c(F)c2)c(=O)c2sc3ccccc3c21	inactive: 16.7%
COc1cccc(-n2c(SCC(=O)Nc3cc(C)ccc3C)nc3c(oc4ccccc43)c2=O)c1	inactive: -0.997%
Cn1nc(C(=O)NCc2cccc(Cl)c2)c2c1-c1ccccc1S(=O)(=O)C2	inactive: -2.56%
Cc1cc(C)cc(NC(=O)Cn2c(=O)n(-c3cc(C)cc(C)c3)c(=O)c3oc4ccccc4c32)c1	inactive: -13.4%
CCOC(=O)Cn1c(=O)n(C2CCCCC2)c2nc(-c3ccc(CC)cc3)nc(C(N)=O)c21	inactive: -9.19%
Cc1nc2ccccc2n2c(-c3ccccc3)c3c(=O)n(C)c(=O)n(C)c3c12	inactive: 1.43%
COc1ccc(-n2ccnc2SCC(=O)Nc2nnc(C)s2)cc1	inactive: -14.9%
COc1cc(CN2CCc3nc(N4CCN(c5ncccn5)CC4)ncc3C2)cc(OC)c1OC	inactive: 15.7%
Cc1ccccc1N(C)S(=O)(=O)c1nnc(NC(=O)c2ccccc2F)s1	inactive: 20%
Cc1ccc(NC(=O)C(=O)NCCc2sc(-c3ccc(Cl)cc3)nc2C)cc1C	inactive: -4.8%
COc1cccc(Cn2c(CNC(=O)CCc3ccccc3)nc3cccnc32)c1	inactive: -29.7%
COc1cccc(CNC(=O)CCn2nc(C)c3c(C)n(-c4ccccc4)nc3c2=O)c1	inactive: -1.98%
CN(c1ccccc1)S(=O)(=O)c1nnc(NC(=O)C2CCCCC2)s1	inactive: -6.58%
Cc1c(Cl)cccc1NC(=O)CCS(=O)(=O)c1ccc2c(c1)oc(=O)n2C	inactive: -0.0157%
COc1cccc(C(=O)N(Cc2cccnc2)c2nc3c(OC)ccc(C)c3s2)c1OC	inactive: 2.28%
CCOC(=O)c1c(C)c(C(=O)NCc2ccc(OC)cc2)c(C)n1CC	inactive: -0.416%
COc1ccc(NCc2cc3cc4c(cc3n(CC(=O)Nc3ccc(F)cc3)c2=O)OCCO4)cc1	inactive: -52.3%
O=C(CSc1nc2ccccc2nc1Cc1ccc(Cl)cc1)N1CCCc2ccccc21	inactive: -4.73%
COC(=O)C(C)Sc1nc2c(cnn2-c2ccc(F)cc2)c(=O)[nH]1 (centres undefined)	inactive: 11.7%

SMILES	activation
CCOc1cc(C2CC(=O)Nc3cc4c(cc32)OCCO4)ccc1O (centres undefined)	inactive: -24.9%
CCOc1ccccc1NS(=O)(=O)c1ccc2c(c1)CC(C)N2C(=O)C1CCC1 (centres undefined)	inactive: 3.13%
CCOc1ccc(NC(=O)c2cnn(-c3ccc(C)c(C)c3)c2C2CCN(C(=O)OC(C)(C)C)CC2)cc1	inactive: -20.8%
COc1ccccc1N1CCN(C(=O)c2cn(C)c3ccc(S(=O)(=O)N(C)C4CCCCC4)cc3c2=O)CC1	inactive: -2.89%
CCc1ccc(OCC(=O)N(Cc2ccco2)Cc2ccccc2Cl)cc1	inactive: -14.1%
CCOc1ccc(Nc2nc3c(S(=O)(=O)c4cccc(Cl)c4)nnn3c3ccsc23)cc1	inactive: -20.2%
CC1=C(C(=O)Nc2ccccc2)C(c2ccc(C(=O)O)cc2)n2ncnc2N1 (centres undefined)	inactive: -3.09%
CCOC(=O)c1cnc2c(ccc3ccccc32)c1Nc1cccc(C(F)(F)F)c1	inactive: -13.8%
Cc1ccc(NC(=O)CCCn2c(=O)c3cccn3c3ccccc32)c(C)c1	inactive: -25.5%
CCc1noc(-c2ccc(NCc3ccccc3)c([N+](=O)[O-])c2)n1	inactive: 7.73%
Cc1ccc(C(=O)NCC(c2ccc3c(c2)OCO3)N2CCN(C)CC2)cc1C (centres undefined)	inactive: -0.559%
COc1ccc(Cn2c(C(=O)O)c(CNCCc3ccco3)c3ccc(C)cc32)cc1	active: 104%
COc1ccc(F)cc1S(=O)(=O)NCC(c1ccco1)S(=O)(=O)c1ccc(F)cc1 (centres undefined)	inactive: -14.8%
CCOc1cc(C(=O)NCCc2csc3nc(-c4ccccc4F)nn23)cc(OCC)c1OCC	inactive: 3.02%
N=c1c(C(=O)NCC2CCCO2)cc2c(=O)n3ccccc3nc2n1CCCO (centres undefined)	inactive: 12.2%
Cc1nn(CCCC(=O)NCCc2ccc(Cl)cc2)c(=O)c2c1sc1ccccc12	inactive: -19.3%
Cc1ccccc1OCC(=O)Nc1ccccc1C(=O)OCc1cc(=O)n2ccsc2n1	inactive: 0.573%
Cc1cc(C(F)F)n2nc(C(=O)Nc3cccc(Cl)c3C)nc2n1	inactive: -4.15%
O=C(Nc1ccc(-n2nncc2-c2ccccc2)cc1)c1cccc(F)c1	inactive: -25.1%
COc1ccc2c(c1)c1c(c(=O)n(-c3ccccc3)c(=O)n1CC(=O)NCCC1=CCCCC1)n2C	inactive: -24.9%
Cn1ncc2c(NCc3ccccc3Cl)nc(NCCO)nc21	inactive: 22.9%

SMILES	activation
O=C(CN1C(=O)CCn2nc(-c3ccccc3)cc21)NCc1ccc(F)cc1	inactive: -5.44%
CCOc1ccc(CNC(=O)C2CCN(S(=O)(=O)c3cn(C)cn3)CC2)cc1	inactive: -11.6%
Cc1cc(C)c(/C=C/c2onc(C)c2S(=O)(=O)N2CCC(C(=O)N(C)Cc3ccccc3)CC2)c(C)c1	inactive: -21.9%
Cc1ccc(NC(=O)Nc2nnc(N(C)C3CCCCC3)s2)c(Cl)c1	inactive: -18.9%
CC(=O)NC(Cc1ccccc1)C(=O)O (centres undefined)	inactive: 5.32%
Cc1ccc(-n2c(=O)c3c4c(sc3n(Cc3ccccc3C)c2=O)CCC4)cc1C	inactive: -8.3%
Cc1ccccc1C(=O)Nc1nc2nc(-c3ccccc3)cc(=O)n2[nH]1	inactive: 11.4%
O=C(Nc1ccc2c(c1)OCO2)c1cc(-c2ccc(Br)cc2)on1	inactive: 9.84%
COc1ccc(O)cc1	inactive: 7.95%
NCCc1cnc[nH]1	inactive: 2.69% and inactive: 3.14%
CCN1C(C(=O)c2ccccc2)=C(OC(=O)c2ccc(OC)cc2)c2ccccc2S1(=O)=O	inactive: -33.8%
Cc1ccc(NC(=O)c2oc3ccc(S(=O)(=O)N4CCCCC4)cc3c2C)cc1Cl	inactive: 0.827%
CCN(Cc1ccccc1)C(=O)CCc1c(C)nc2c(c(C)nn2-c2ccc(C)c(C)c2)c1C	inactive: -3.68%
Cn1c(=O)c2c(-c3ccc(Br)cc3)n(CCc3ccccc3)cc2n(C)c1=O	inactive: -20.7%
CCc1cccc(C)c1NC(=O)Cn1cc2c(n1)CCCC2	inactive: 12.5%
COc1cccc(C(=O)NCc2cn3ccccc3n2)c1	inactive: -2.27%
NCCCC(=O)O	inactive: 1.54%
Cc1ccc2c(=O)cc(C(=O)Nc3ccc(S(=O)(=O)N(C)Cc4ccccc4)cc3)oc2c1C	inactive: 7.68%
CN(N=O)C(=O)N[C@@H]1[C@@H](O)[C@H](O)[C@@H](CO)O[C@@H]1O	inactive: 16.2%
O=C(NCCCO)C(=O)NCC(c1ccc2c(c1)OCO2)N1CCOCC1 (centres undefined)	inactive: 0.593%
CCOc1ccc(C(=O)c2cn(CC(=O)Nc3ccc(F)cc3)c3cc4c(cc3c2=O)OCCO4)cc1	inactive: -2.87%

— PubChem BioAssay AID1346428 (National Center for Advancing Translational Sciences (NCATS), 2018)
